# Measured values published in the supplement of paper PMC11166567.
# The other results are listed elsewhere or left out.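 Rule for the calls: active = permutation test q below 0.05 after Benjamini-Hochberg correction; inactive = q of 0.05 or more.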
# Test system: U2OS
# Assay: mean average precision of replicate retrieval against DMSO controls (Cell Painting phenotypic activity) (fraction (0-1)); higher = stronger, more reproducible morphological phenotype distinct from DMSO; extreme values may be limits of the assay
# Details: 24 h; 5 µM
# 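Note: cosine similarity of well-level aggregated Cell Painting profiles ranks each compound's replicate wells against DMSO wells, four replicate plates, significance from 100,000 rank shuffles.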
row,Structure (SMILES),mean average precision
1,CCOC(=O)c1cc(C#N)c(N2CCC(C(=O)NS(=O)(=O)Cc3ccccc3)CC2)nc1C,active: 0.733
2,O=C(O)[C@@H]1CCCN1,active: 0.528
3,COc1cc2ncnc(Nc3ccc(Oc4ccccc4)cc3)c2cc1OC,active: 1
4,O=C1C(CC[S+]([O-])c2ccccc2)C(=O)N(c2ccccc2)N1c1ccccc1 (stereo not given),inactive: 0.114
5,Nc1nc(F)nc2c1ncn2[C@@H]1O[C@H](CO)[C@@H](O)[C@@H]1O,active: 1
6,CCN[C@H]1CN(CCCOC)S(=O)(=O)c2sc(S(N)(=O)=O)cc21,active: 0.42
7,CC(C)[C@@H]1C(=O)N(S(C)(=O)=O)[C@@H]2CCN(C(=O)/C=C/CN3CCCCC3)[C@H]21,active: 0.59
8,Cc1nc2c([nH]1)CCN(C(=O)c1ccc(NC(=O)c3ccccc3-c3ccccc3)cc1)c1ccccc1-2,active: 1
9,CC(=O)Oc1cccc2c1C(=O)c1c(OC(C)=O)cc(C(=O)O)cc1C2=O,inactive: 0.0967
10,N=C(N)c1ccc2cc(OC(=O)c3ccc(N=C(N)N)cc3)ccc2c1,active: 0.553
11,COc1cc(N2CCN(C)CC2)ccc1Nc1nccc(-c2cn(C)c3cnccc23)n1,active: 1
12,CCC[C@H](Nc1nc(-c2ccc(NC(=O)NCC)c(OC)c2)ncc1C)c1cccnc1,active: 1
13,COc1cccc(-c2cc(F)ccc2[C@H]2Cc3nc(N)nc(C)c3C(=O)N2)n1,active: 1
14,CCCCNc1ncc2c(-c3ccc(CN4CCN(C)CC4)cc3)cn(C3CCC(O)CC3)c2n1 (stereo not given),active: 1
15,CNC(=O)c1cc(Oc2ccc(NC(=O)Nc3ccc(Cl)c(C(F)(F)F)c3)c(F)c2)ccn1,active: 1
16,O=C1CC[C@@H](C(=O)O)N1,active: 0.603
17,CCCCCCCC/C=C\CCCCCCCC(=O)OC(CO)CO,inactive: 0.307
18,Cc1cccc(Oc2nc3c(C)cccn3c(=O)c2/C=C(\C#N)c2nc3ccccc3s2)c1,active: 0.37

row,Structure (SMILES),mean average precision
1,OC[C@H]1O[C@@H](n2cnc3c(NC4CCCC4)ncnc32)[C@H](O)[C@@H]1O,active: 0.354
2,O=C(O)c1cc(N=Nc2ccc(S(=O)(=O)Nc3ccccn3)cc2)ccc1O,inactive: 0.0759
3,Cc1cc2c(s1)Nc1ccccc1N=C2N1CCN(C)CC1,active: 0.418
4,CCCOc1ccc2nc(NC(=O)OC)[nH]c2c1,active: 1
5,Cc1cc(C)cc(NC(=O)Cc2ccc(OC(C)(C)C(=O)O)cc2)c1,inactive: 0.225
6,COc1ccc(Cl)cc1[C@]1(F)C(=O)Nc2cc(C(F)(F)F)ccc21,active: 0.499
7,O=C(CSc1nc2c(c(=O)n1-c1ccccc1)SCC2)Nc1ccc(-c2ccccc2)cn1,active: 0.529
8,NC(=NCc1ccccc1)NC(=O)c1nc(Cl)c(N)nc1N,active: 0.89
9,CCCCCCCN(CC)CCCC(O)c1ccc(NS(C)(=O)=O)cc1 (stereo not given),inactive: 0.142
10,COc1ccc(C2Sc3ccccc3N(CCN(C)C)C(=O)C2OC(C)=O)cc1 (stereo not given),active: 0.503
11,Cc1cccc(-c2[nH]c(C(C)(C)C)nc2-c2ccc3c(c2)OCO3)n1,active: 1
12,C/C=C(/C)C(=O)O[C@H]1C(C)=C[C@]23C(=O)[C@@H](C=C(CO)[C@@H](O)[C@]12O)[C@H]1[C@@H](C[C@H]3C)C1(C)C,active: 1
13,COc1cc(C(=O)OCCCN2CCCN(CCCOC(=O)c3cc(OC)c(OC)c(OC)c3)CC2)cc(OC)c1OC,active: 0.501
14,CCOC(=O)C1=C(COCCN)NC(C)=C(C(=O)OC)C1c1ccccc1Cl (stereo not given),active: 1
15,CCN1/C(=C/C(C)=O)Sc2ccc(OC)cc21,active: 0.402
16,COCCN1CCN(Cc2ccc(-c3n[nH]c4c3C(=O)c3c(NC(=O)NN5CCOCC5)cccc3-4)cc2)CC1,active: 1
17,COc1cccc(-c2cc(=O)c3ccccc3o2)c1N,active: 0.793

# Same assay, conditions: 48 h; 5 µM
row,Structure (SMILES),mean average precision
1,CCOC(=O)c1cc(C#N)c(N2CCC(C(=O)NS(=O)(=O)Cc3ccccc3)CC2)nc1C,active: 0.566
2,O=C(O)[C@@H]1CCCN1,inactive: 0.294
3,COc1cc2ncnc(Nc3ccc(Oc4ccccc4)cc3)c2cc1OC,active: 0.834
4,O=C1C(CC[S+]([O-])c2ccccc2)C(=O)N(c2ccccc2)N1c1ccccc1 (stereo not given),inactive: 0.256
5,Nc1nc(F)nc2c1ncn2[C@@H]1O[C@H](CO)[C@@H](O)[C@@H]1O,active: 1
6,CCN[C@H]1CN(CCCOC)S(=O)(=O)c2sc(S(N)(=O)=O)cc21,inactive: 0.268
7,CC(C)[C@@H]1C(=O)N(S(C)(=O)=O)[C@@H]2CCN(C(=O)/C=C/CN3CCCCC3)[C@H]21,active: 0.363
8,Cc1nc2c([nH]1)CCN(C(=O)c1ccc(NC(=O)c3ccccc3-c3ccccc3)cc1)c1ccccc1-2,active: 0.869
9,CC(=O)Oc1cccc2c1C(=O)c1c(OC(C)=O)cc(C(=O)O)cc1C2=O,inactive: 0.146
10,N=C(N)c1ccc2cc(OC(=O)c3ccc(N=C(N)N)cc3)ccc2c1,active: 0.649
11,COc1cc(N2CCN(C)CC2)ccc1Nc1nccc(-c2cn(C)c3cnccc23)n1,active: 1
12,CCC[C@H](Nc1nc(-c2ccc(NC(=O)NCC)c(OC)c2)ncc1C)c1cccnc1,active: 0.913
13,COc1cccc(-c2cc(F)ccc2[C@H]2Cc3nc(N)nc(C)c3C(=O)N2)n1,active: 1
14,CCCCNc1ncc2c(-c3ccc(CN4CCN(C)CC4)cc3)cn(C3CCC(O)CC3)c2n1 (stereo not given),active: 1
15,CNC(=O)c1cc(Oc2ccc(NC(=O)Nc3ccc(Cl)c(C(F)(F)F)c3)c(F)c2)ccn1,active: 1
16,O=C1CC[C@@H](C(=O)O)N1,active: 0.493
17,CCCCCCCC/C=C\CCCCCCCC(=O)OC(CO)CO,active: 0.333
18,Cc1cccc(Oc2nc3c(C)cccn3c(=O)c2/C=C(\C#N)c2nc3ccccc3s2)c1,active: 0.822

row,Structure (SMILES),mean average precision
1,OC[C@H]1O[C@@H](n2cnc3c(NC4CCCC4)ncnc32)[C@H](O)[C@@H]1O,inactive: 0.133
2,O=C(O)c1cc(N=Nc2ccc(S(=O)(=O)Nc3ccccn3)cc2)ccc1O,active: 0.447
3,Cc1cc2c(s1)Nc1ccccc1N=C2N1CCN(C)CC1,active: 0.628
4,CCCOc1ccc2nc(NC(=O)OC)[nH]c2c1,active: 1
5,Cc1cc(C)cc(NC(=O)Cc2ccc(OC(C)(C)C(=O)O)cc2)c1,inactive: 0.0703
6,COc1ccc(Cl)cc1[C@]1(F)C(=O)Nc2cc(C(F)(F)F)ccc21,inactive: 0.167
7,O=C(CSc1nc2c(c(=O)n1-c1ccccc1)SCC2)Nc1ccc(-c2ccccc2)cn1,active: 0.702
8,NC(=NCc1ccccc1)NC(=O)c1nc(Cl)c(N)nc1N,active: 0.781
9,CCCCCCCN(CC)CCCC(O)c1ccc(NS(C)(=O)=O)cc1 (stereo not given),active: 0.457
10,COc1ccc(C2Sc3ccccc3N(CCN(C)C)C(=O)C2OC(C)=O)cc1 (stereo not given),inactive: 0.0731
11,Cc1cccc(-c2[nH]c(C(C)(C)C)nc2-c2ccc3c(c2)OCO3)n1,active: 1
12,C/C=C(/C)C(=O)O[C@H]1C(C)=C[C@]23C(=O)[C@@H](C=C(CO)[C@@H](O)[C@]12O)[C@H]1[C@@H](C[C@H]3C)C1(C)C,active: 1
13,COc1cc(C(=O)OCCCN2CCCN(CCCOC(=O)c3cc(OC)c(OC)c(OC)c3)CC2)cc(OC)c1OC,active: 0.403
14,CCOC(=O)C1=C(COCCN)NC(C)=C(C(=O)OC)C1c1ccccc1Cl (stereo not given),active: 0.573
15,CCN1/C(=C/C(C)=O)Sc2ccc(OC)cc21,inactive: 0.205
16,COCCN1CCN(Cc2ccc(-c3n[nH]c4c3C(=O)c3c(NC(=O)NN5CCOCC5)cccc3-4)cc2)CC1,active: 1
17,COc1cccc(-c2cc(=O)c3ccccc3o2)c1N,active: 0.549
